# Data taken from the supplement of paper PMC8183993.
# “And” between values parts separate entries of the source, which are not always exact repeats. Equal entries are not always repeated. Structures can show the parent of a compound that is named as a salt. ± gives the standard deviation of the averaged measurements. Over roughly 3,100 compounds, “mean cytoplasmic OPP incorporation (global translation) relative to DMSO” has its median near 100; the lowest 2% begin near 56. Some of the results follow.
# Test system: U2OS
# Test: mean cytoplasmic OPP incorporation (global translation) relative to DMSO (% of DMSO); higher = more protein synthesis
# Details: 10 µM; 24 h
# Description: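 Primary image-based screen in U2OS cells: compounds at 10 uM for 24 h, then a 1 h o-propargyl-puromycin (OPP) pulse, click labelling, and high-throughput microscopy. Mean cytoplasmic OPP intensity and nuclei count were normalised to DMSO wells within each plate (DMSO = 100) and averaged over triplicate plates.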
row,Structure (SMILES),mean cytoplasmic OPP incorporation
1,CC=CC1=C(C(=O)O)N2C(=O)[C@@H](NC(=O)[C@H](N)c3ccc(O)cc3)[C@H]2SC1 [Cefprozil hydrate (Cefzil)],99.7
2,O=S(=O)(O)Oc1ccc(C(c2ccc(OS(=O)(=O)O)cc2)c2ccccn2)cc1 [Sodium Picosulfate],99.5
3,NC(=O)CC[C@H](N)C(=O)O [L-Glutamine],115
4,CCn1c(-c2nonc2N)nc2c(C#CC(C)(C)O)ncc(OC[C@H]3CCCNC3)c21,97.6 ± 2.1
5,CCN(CC)CCOc1ccc(Nc2ncc3cc(-c4c(Cl)cccc4Cl)c(=O)n(C)c3n2)cc1,53.6
6,CCCCc1ccc2[nH]c(NC(=O)OC)nc2c1 [Parbendazole],72.5
7,COc1cc2ncnc(Nc3cccc(Cl)c3)c2cc1OC [AG-1478 (Tyrphostin AG-1478)],91
8,O=c1oc2cc(O)ccc2s1 [Tioxolone],100
9,CN1CCCN(C(c2ccccc2)c2ccc(Cl)cc2)CC1 (stereo unspecified) [Homochlorcyclizine dihydrochloride],104
10,C[C@@H]1C[C@H]2[C@@H]3CCC4=CC(=O)C=C[C@]4(C)[C@@]3(Cl)[C@@H](O)C[C@]2(C)[C@@]1(OC(=O)c1ccco1)C(=O)CCl [Mometasone furoate],96.6 ± 7
11,CCOC(=O)c1cnc2c(cnn2CC)c1NN=C(C)C [Etazolate hydrochloride],97.7
12,O=C(O)[C@H](CC(=O)N1C[C@H]2CCCC[C@H]2C1)Cc1ccccc1 [Mitiglinide calcium],110
13,C[C@]12CCC3=C4CCC(=O)C=C4CC[C@H]3[C@@H]1CC[C@@]2(O)CC#N [Dienogest],99.8
14,COc1cc2ncnc(-n3nc(-c4ccccn4)nc3N)c2cc1OC,101
15,Nc1ncnc2c1ncn2C1OC(COP(=O)(O)O)C(O)C1O (stereo unspecified) [Adenosine 5'-monophosphate monohydrate],92.4
16,O=C(O)c1cc(/N=N/c2ccc(S(=O)(=O)Nc3ccccn3)cc2)ccc1O [Sulfasalazine],100
17,C=C1c2cccc(O)c2C(O)=C2C(=O)[C@]3(O)C(O)=C(C(N)=O)C(=O)[C@@H](N(C)C)[C@@H]3[C@@H](O)[C@H]12 [Methacycline HCl (Physiomycine)],103
18,NC(=O)c1ccc(I)c([N+](=O)[O-])c1 [Iniparib (BSI-201)],99.5
19,O=C(O)c1ccccc1Nc1cccc2c1C(=O)c1cccc(Nc3ccccc3C(=O)O)c1C2=O,113
20,CCc1cccc(CC)c1NC(=O)CN(CC(=O)O)CC(=O)O [Etifenin],98.9
21,CN/C(=N\CCSCc1nc[nH]c1C)NC#N [Cimetidine (Tagamet)],114
22,CN/C(=N\CCSCc1nc[nH]c1C)NC#N [Cimetidine],98.73 ± 0.22
23,COc1ccc(C2=N[C@@H](c3ccc(Cl)cc3)[C@@H](c3ccc(Cl)cc3)N2C(=O)N2CCNC(=O)C2)c(OC(C)C)c1 [Nutlin-3],106
24,CC1CCN=C(N)S1 (stereo unspecified) [AMT hydrochloride],96.7
25,N#C/C(=C\c1ccc(O)c(O)c1)C(=O)NCCCc1ccccc1,92.7
26,Nc1cc(N2CCCCC2)nc(N)[n+]1[O-] [Minoxidil],103 ± 2.3

row,Structure (SMILES),mean cytoplasmic OPP incorporation
1,CS(=O)(=O)Nc1c(O)ccc2c1CCCC2C1=NCCN1 (stereo unspecified),93.7
2,N#Cc1cc(CN2CCC(Nc3ncnc4sc(Cl)cc34)CC2)ccc1F,109
3,COc1ccc2cc([C@H](C)C(=O)O)ccc2c1 [Naproxen sodium],99.7
4,COc1ccc2cc([C@H](C)C(=O)O)ccc2c1 [Naproxen],103
5,COc1ccc2cc([C@H](C)C(=O)O)ccc2c1 [Naproxen (Aleve)],103
6,C[C@]12CCC(=O)C=C1[C@@H]1C[C@@H]1[C@H]1[C@@H]3[C@@H]4C[C@@H]4[C@@]4(CCC(=O)O4)[C@@]3(C)CC[C@@H]12 [Drospirenone],110
7,CC(C)C[C@H](NC(=O)[C@H](CCC(=O)O)NC(=O)CNC(=O)c1ccc(/C=C/C(=O)O)cc1)C(N)=O,99.6
8,CC1=C(/C=C/C(C)=C/C=C/C(C)=C/CO)C(C)(C)CCC1 [all-trans-Retinol],101
9,OCCn1cc(-c2cnc3nnn(Cc4ccc5ncccc5c4)c3n2)cn1,98.9
10,Cc1ncc([N+](=O)[O-])n1CC(C)O (stereo unspecified) [Secnidazole],100
11,C/C=C(/C(=C/C)c1ccc(O)cc1)c1ccc(O)cc1 [Dienestrol],105
12,O=C(O)c1ccccc1OP(=O)(O)O [Fosfosal],97.4
13,CC(C)C[C@H](NC(=O)N1CCCCCC1)C(=O)N[C@H](Cc1cn(C)c2ccccc12)C(=O)N[C@H](Cc1ccccn1)C(=O)O,99.8
14,CCCCn1c(=O)c2[nH]c(C34CC5CC(CC3C5)C4)nc2n(CCCO)c1=O,117
15,CC1=C(/C=C/C(C)=C/C=C/C(C)=C\CO)C(C)(C)CCC1 [13-cis-Retinol],90.9
16,CCC(NC(C)C)C(O)c1ccc(O)c2[nH]c(=O)ccc12 (stereo unspecified) [Procaterol hydrochloride],98.7
17,O=C(NC[C@H](O)CO)c1ccncc1Nc1ccc(I)cc1F,87.8
18,O=C(O)c1ccc2cc(-c3ccc(O)c(C45CC6CC(CC(C6)C4)C5)c3)ccc2c1,65.6
19,Cc1ccc(C(=O)Nc2ccc(CN3CCN(C)CC3)c(C(F)(F)F)c2)cc1C#Cc1cnc2[nH]ncc2c1 [GZD824 Dimesylate],37.4
20,Oc1ccc(-c2nc(-c3ccc(F)cc3)c(-c3ccncc3)[nH]2)cc1,102 and 97.8
21,O=C(Nc1ccc(S(=O)(=O)Nc2ccccc2Cl)c(Cl)c1)c1ccccn1,90.1
22,O=C(O)c1cc(=O)[nH]c(=O)[nH]1 [Orotic acid (6-Carboxyuracil)],121
23,O=c1n(CCCN2CCN(c3cccc(Cl)c3)CC2)nc2ccccn12 [Trazodone hydrochloride],91.2
24,CC1(C)S[C@@H]2[C@H](NC(=O)[C@H](N)c3ccccc3)C(=O)N2[C@H]1C(=O)O [Ampicillin trihydrate],100
25,CC1(C)S[C@@H]2[C@H](NC(=O)[C@H](N)c3ccccc3)C(=O)N2[C@H]1C(=O)O [Ampicillin sodium],102
26,CCOc1cc(C(=O)Nc2ccc(Cl)c(-c3nc4ccccc4[nH]3)c2)cc(OCC)c1OCC,116

row,Structure (SMILES),mean cytoplasmic OPP incorporation
1,CN(C)C(=O)n1nnnc1Cc1ccc(-c2ccccc2)cc1,106
2,C=C[C@H]1CN2CC[C@H]1C[C@H]2[C@H](O)c1ccnc2ccc(OC)cc12 [Quinine HCl 2H2O],100
3,N[C@@H](Cn1ccc(=O)n(Cc2ccccc2C(=O)O)c1=O)C(=O)O,97 and 95.8
4,O=C1[C@@H]2[C@H]3CC[C@H](C3)[C@@H]2C(=O)N1C[C@@H]1CCCC[C@H]1CN1CCN(c2nsc3ccccc23)CC1 [Lurasidone HCl],106
5,CCCCC[C@H](O)/C=C/[C@H]1[C@H](O)CC(=O)[C@@H]1C/C=C\CCCC(=O)O [Prostaglandin E2],99.3
6,N/C(=N\C(=O)c1nc(Cl)c(N)nc1N)NCc1ccccc1 [Benzamil hydrochloride],96.9
7,N/C(=N\C(=O)c1nc(Cl)c(N)nc1N)NCc1ccccc1 [Benzamil],100
8,O=C(CCNNC(=O)c1ccncc1)NCc1ccccc1 [Nialamide],99.3
9,CCCn1c(=O)c2[nH]c(C3CCCC3)nc2n(CCC)c1=O,103
10,Nc1ccc(-c2ccc3ncc4ccc(=O)n(-c5cccc(C(F)(F)F)c5)c4c3c2)cn1 [Torin 2],67.6 ± 3.6
11,Cc1nc2ccccn2c(=O)c1CCN1CCC(C(=O)c2ccc(F)cc2)CC1 [Pirenperone],108
12,NC(=O)c1cnccn1 [Pyrazinamide],100
13,CO[C@@H]1[C@H](OC(=O)/C=C/C=C/C=C/C=C/C(=O)O)CC[C@]2(CO2)[C@H]1[C@@]1(C)O[C@@H]1CC=C(C)C [Fumagillin],85.9
14,Nc1nc(N)c(N=O)c(OCC2CCCCC2)n1,90.1 ± 0.98
15,C#Cc1cccc(Nc2ncnc3cc(OCCOC)c(OCCO)cc23)c1 [OSI-420 (Desmethyl Erlotinib)],85.4
16,Cn1cnc2c(F)c(Nc3ccc(Br)cc3F)c(C(=O)NOCCO)cc21,92.3
17,CC(=O)O[C@H]1C(=O)[C@@]2(C)[C@H]([C@H](OC(=O)c3ccccc3)[C@]3(O)C[C@H](OC(=O)[C@H](O)[C@@H](NC(=O)c4ccccc4)c4ccccc4)C(C)=C1C3(C)C)[C@]1(OC(C)=O)CO[C@@H]1C[C@@H]2O [Taxol],93.9
18,CC(=O)O[C@H]1C(=O)[C@@]2(C)[C@H]([C@H](OC(=O)c3ccccc3)[C@]3(O)C[C@H](OC(=O)[C@H](O)[C@@H](NC(=O)c4ccccc4)c4ccccc4)C(C)=C1C3(C)C)[C@]1(OC(C)=O)CO[C@@H]1C[C@@H]2O [Paclitaxel (Taxol)],88.5
19,CC(=O)O[C@H]1C(=O)[C@@]2(C)[C@H]([C@H](OC(=O)c3ccccc3)[C@]3(O)C[C@H](OC(=O)[C@H](O)[C@@H](NC(=O)c4ccccc4)c4ccccc4)C(C)=C1C3(C)C)[C@]1(OC(C)=O)CO[C@@H]1C[C@@H]2O [Paclitaxel],101
20,NC(=O)c1cccc(-c2cccc(OC(=O)NC3CCCCC3)c2)c1,107
21,NCCCCCc1c[nH]cn1 [Impentamine dihydrobromide],99.3
22,COc1cccc2c1C(=O)c1c(O)c3c(c(O)c1C2=O)C[C@@](O)(C(=O)CO)C[C@@H]3O[C@H]1C[C@H](N)[C@@H](O)[C@H](C)O1 [Epirubicin HCl],59.5
23,CCCN(CCC)CCc1cccc2c1CC(=O)N2 [Ropinirole HCl],101
24,O=C1Cc2c([nH]c3ccc(Br)cc23)-c2ccccc2N1 [Kenpaullone],86.8 ± 4.6
